Experimental data as given in the supplement of paper PMC11417369.
± gives the standard deviation of the averaged measurements. The list shows a part of the results.

System: PfAP2-EXP AP2 domain (GST-tagged)
Assay: gcPBM binding intensity (ln(normalized median fluorescence intensity)); higher = stronger DNA binding
How it was run: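 In this array assay, P. falciparum DNA-binding domains with a GST tag, expressed in E. coli, were applied for 1 h to primer-extended double-stranded 36-bp intergenic genomic probes and negative controls on an Agilent 4 × 180k array. Bound protein was visualised with Alexa488 anti-GST antibody at 488 nm. Binding intensity is the highest Masliner-normalised natural-log median intensity across replicate spots of either probe orientation.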

Sequence	gcPBM binding intensity (ln)
TTTTTTTTGCGTACAGTGCAAATTTATTTACTATTC	8.84 ± 0.2
AAATATAATAATATATGTACATATATATATATATAT [XGTACX_site6980]	10.1 ± 0.3
AAAAAAATATATATATATATATATATATATATATAT [TGCATGCA_negctrl_site7]	10.1 ± 0.26
CGTGGGAGCGGACACACACACACACCCATATATATA [CACACA_site4340]	8.7 ± 0.13
TCAACAAATAAACTTTGTACATATATACAAAATATA [XGTACX_site4447]	8.35 ± 0.48
AATTTAAAAGCTTGTGGTACTTTTGCTCTTCCTTTG [XGTACX_site3148]	8.64 ± 0.59
TATACATATTATATATGTACACATATTATATGTATA [XGTACX_site5851]	8.27 ± 0.15
TATGTATTAAATTTTACACACATGATTCTCTATATG [CACACA_site8720]	8.62 ± 0.64
ATGAATTATATATTATGTACATATAATTAAAATATA [XGTACX_site7140]	8.34 ± 0.16
TTTAAAAAAAAAAAAAAAAATTAAATGAATTATTAA [CACACA_negctrl_site1121]	7.71 ± 0.49
TAACATGATATATAATGTACATATAAGATATTTATA [XGTACX_site4383]	8.42 ± 0.3
ATACAAAAAAGAAGGACACACAGAAGTAACATGTTA [CACACA_site3074]	9.06 ± 0.59
ATATATATATATGTATGTACGTATGTATTTACTGCT [XGTACX_site3839]	9.8 ± 0.26
TCCAATATATTTATGAGTACTTATAAATTATACGTT [XGTACX_site742]	8.64 ± 0.29
TTCATACATATTTGAAGTACATTTAAAAATGTCCTT [XGTACX_site747]	8.56 ± 0.19
GAAGTAATTTCATATACACACATATACATACATACA [CACACA_site6753]	8.96 ± 0.31
TTTGAATAAAAACAAAAAATTAAATTAAATTAAATA [CACACA_negctrl_site312]	8.15 ± 0.5
ATTGTGTTAATAAAATGTACATTTTCTCTACATTAA [XGTACX_site2766]	8.71 ± 0.38
TATTTATAATTATAATAATATATATATATATATATA [TGCATGCA_negctrl_site173]	9.97 ± 0.28
ATTAAATAAAAAAACACACACATATATACCTATATA [CACACA_site5837]	8.54 ± 0.46
AATAAAACATAATAATGTACTCAAAGGTTTAACTTG [XGTACX_site4711]	8.48 ± 0.41
CAAAACATTTTATCTACACACATATATAAATAAATA [CACACA_site3220]	8.36 ± 0.33
AACGTGTGGAGAATTATAAATGAGTAAAAAATATAT [XGTACX_negctrl_site562]	8.96 ± 0.37

Sequence	gcPBM binding intensity (ln)
AAAATAAAAGAATAAAAATATGAAACTTTTTTAAAA [GTGCAC_negctrl_site348]	8.12 ± 0.43
GGGGGGAGGGTGAATACACACGTAATAATCATAAAC [CACACA_site8502]	10.6 ± 0.22
ATATATGTGTATGTATGTACTTATATTTTTTTTTAT [XGTACX_site1733]	8.37 ± 0.33
TCCGTTATATATGTGTGTACATATAATATATCCTCA [XGTACX_site2588]	8.65 ± 0.36
GCAAATCAATTTTTTTTTAAAACTCATTTTTTCGTT [CACACA_negctrl_site1136]	8.79 ± 0.41
AAAAATGAAAGTAAGACATGCATGGAATTTTTTTTA [TGCATGCA_site347]	9.06 ± 0.47
TTTTTTTTTTATGAAAGTACATATGAAAAATACGAA [XGTACX_site3451]	8.71 ± 0.21
TTTTATCATCTTTTTACATTATGTATAAATATTTTC [CACACA_negctrl_site206]	8.77 ± 0.42
AAAAGAACAATGAAGTGTACTAATAATTATTTATGT [XGTACX_site6649]	8.72 ± 0.35
AGCAAAACATAAAATAGTACACATTTAACAAAAAAA [XGTACX_site2921]	8.65 ± 0.4
ATATAATATATTTTTGAACACACAATATATATATAT [CACACA_site9368]	9.78 ± 0.18
TTTTGTTGAAAAGTAAGATATTCCAACATGTTTTTA [CACACA_negctrl_site391]	8.36 ± 0.57
TAACTAATATATAAAACACACATCATAAAAATATAA [CACACA_site768]	8.51 ± 0.61
ATATCATTTTCCTGCACACATAAATTTATATAATAT [CACACA_site1048]	9.15 ± 0.31
ACACATAAATGAATAAATAAATAAATATAAATATAA [CACACA_negctrl_site1784]	8.36 ± 0.29
GGTGGGGAGGAGTAATGTACAAATTAACATATTATG [XGTACX_site6666]	9.78 ± 0.28
TTCTTACATGAGTGTACACACTTTTTTTCAGAAAAT [CACACA_site4215]	8.93 ± 0.35
TTATAAAATATTTATGCATGTGAAGAATATTATAAA [TGCATGCA_site1047]	8.8 ± 0.3
GAAAAAAGTATCAAGGTGCGTATATACATCAAAATA	8.96 ± 0.39
AATAGTCGGGTGCATACACACCTTAAATATAATATA [CACACA_site8271]	8.59 ± 0.092
TATATATTATAAAATTGTACATATATTAAATTTTTT [XGTACX_site5852]	8.22 ± 0.18
AAATGTTGAGCAGTACAAAAAAAAAAAAAAAAAAAA [GTGCAC_negctrl_site518]	8.21 ± 0.47
CAAAACAAAACGTATGCACACAATTAAAATATTAAA [CACACA_site5815]	8.69 ± 0.55

Sequence	gcPBM binding intensity (ln)
AAGATACCAATGAAATGTACATATATATAAATATAA [XGTACX_site2135]	8.68 ± 0.41
TTTTTTTTTTAATTGGGTACATATATAATTTAAGAA [XGTACX_site2732]	8.23 ± 0.36
CATTTATATAAAAGAACACACATATAAAATATTATT [CACACA_site3601]	8.54 ± 0.52
TAGTTTTTTATATATTGTACAAATAATATATGATAT [XGTACX_site4220]	8.46 ± 0.33
AGTGATTATTAATAATGTACATATCTATAAATATAT [XGTACX_site4734]	8.36 ± 0.4
TTTTTTTTTTTTTTCTTACAATTTATTGAACAAATG [XGTACX_negctrl_site515]	8.43 ± 0.48
GTATTGCATGAGGACACACACAAAAAAAATATAGAT [CACACA_site6500]	8.84 ± 0.48
TATATATTTCATCCTTGTACACATTTGTGTTTACAT [XGTACX_site1132]	8.75 ± 0.3
AATAAATAAATATATATATATATATATATATATATA [CACACA_negctrl_site365]	10.1 ± 0.4
TATCAAAATTGTAATTGTACTTGTAAGTGGATATAT [XGTACX_site5949]	8.68 ± 0.3
ACAATTTACACTTAAACACACAAAAAAAAGTTATAT [CACACA_site7056]	8.61 ± 0.59
ATATATTGCACTTTTTGTACATAATGAAAAATTTTT [XGTACX_site8223]	9.41 ± 0.24
ACCTTAATAAAAAAAAGTACAAACATGTTCAAATTG [XGTACX_site1556]	9.32 ± 0.45
TACATATTGATATATACACACAAAAAAATAAATTCT [CACACA_site6198]	8.48 ± 0.38
TTTTTTATAGTACATTACCAAAAAAAAAAAAAAAAA [GTGCAC_negctrl_site549]	8.1 ± 0.4
AATTCGTACCTCATTTGTACATATATATATATATAT [XGTACX_site5513]	10.1 ± 0.28
CATACACCCATACATACACACATACAGATATATATA [CACACA_site5123]	8.62 ± 0.35
TCACCATATAAACGTGCACACTACAAAAATATATAA [CACACA_site5413]	9.32 ± 0.42
ATATAAATATTATAATGTACATATAATATATTTATT [XGTACX_site5212]	8.2 ± 0.29
CTTTTATTTTATTTTAGTACGCAACATTCTCTATAT [XGTACX_site7279]	8.88 ± 0.38
TATTTATTTAAAAATTGTACGTAGGATTATACACTT [XGTACX_site286]	8.34 ± 0.26
TAAAATTTGTACATAGTGCAATTTTTTTTTTTTTTT	8.52 ± 0.16
ATCTCTGTATGTTAGACACACATATTTTAATATGTT [CACACA_site4244]	8.57 ± 0.34

Sequence	gcPBM binding intensity (ln)
TTTATTTTTATTTAAAGTACATATCCATTTATTCCT [XGTACX_site1914]	8.57 ± 0.37
AAACAATATTCTCAAGTGCAAAAAGAAAAAAGAAAT	8.88 ± 0.4
TACTTGTTATTAACATGTACAAAAAAAAAAAAAATT [XGTACX_site1338]	8.43 ± 0.5
AATGTACCCACACCCACACACAAACAAATATATATA [CACACA_site2751]	9.27 ± 0.64
AGATTAAAATATATACGTACATATTATTAATTAATA [XGTACX_site3487]	8.58 ± 0.28
ATAGGATGCATATGAGTGCATTCTGTGTTGTTATAA	8.36 ± 0.099
AAAAAAAAAATTAAATGTACACACACCTTAAACAAT [XGTACX_site3848]	8.68 ± 0.45
TAATGTATTATATTTTGTTTTCTTCCACCAAAAAAA [XGTACX_negctrl_site64]	8.71 ± 0.39
ACCCATATAATATATACACACATATATATATATATA [CACACA_site4731]	9.94 ± 0.49
ATTTTCTTATATATATTTTGTATATATTTTGTACAT [CACACA_negctrl_site1496]	8.76 ± 0.45
TAAAAATTGAAGCACACACACAAAAGAAATACAATA [CACACA_site1113]	8.97 ± 0.49
TTTTTTTTTACTTGTTGTACTTTTTCAAGGTATTGT [XGTACX_site7778]	8.76 ± 0.49
ATATAAAAAAATTGCACACATAAATAAATACAGATA [CACACA_site4806]	8.87 ± 0.29
ATATATATATATAATAAACACACAAATAGATATAAC [CACACA_site9234]	9.8 ± 0.24
TATATATATATATATACATGCATACATATACATACA [TGCATGCA_site897]	10.2 ± 0.5
CTACCTTTAATATATACACACACATAAAAAAAATAT [CACACA_site8548]	8.71 ± 0.45
AGATAAGATATATACACACACATAAATACGTACAAA [CACACA_site6639]	9.14 ± 0.21
ATTATATAGCTAAAAAAAATAAATTAAAAATATTAA [TGCATGCA_negctrl_site505]	8.21 ± 0.42
ATATTTACAAGTAATAGTACAGTTAATTATATAAAA [XGTACX_site4856]	8.34 ± 0.33
AATGTACAAATACGTACACACATATTTATATTTATA [CACACA_site6833]	8.5 ± 0.21
